Data taken from ChEMBL document CHEMBL4888484, “Replenishing the malaria drug discovery pipeline: Screening and hit evaluation of the MMV Hit Generation Library 1 (HGL1) against asexual blood stage Plasmodium falciparum ,using a nano luciferase reporter read-out” (2022).
The campaign covered roughly 150,000 compounds. About 540 (0.36%) showed an effect of 50% or more. The list shows a part of the results.

These molecules were tested on Plasmodium falciparum (assay: Primary screen in NF54 nanoGlo assay, in single point, at 2uM, 72h; a lower Z score goes with more inhibition). Settings: timepoint 72 hour.
Assay type: functional, Erythrocyte

| Compound | % Inhibition | Z score |
| --- | --- | --- |
| CCc1ccc(CN(C)c2cc([C@H]3CCOC3)nc(C)n2)nc1 | -9% | 0.93 |
| CCOC(=O)[C@H]1CCCN(C(=O)Cn2c(Cc3ccc(Cl)cc3Cl)nc3ccccc32)C1 | -7% | 1.19 |
| Cn1cnc(CNc2c(Br)cccc2S(C)(=O)=O)n1 | -7% | 1.27 |
| Cc1cc(C)n(CC(=O)N2CCC3(CC2)NCCc2c3[nH]c3ccccc23)n1 | -14% | 1.82 |
| N[C@H]1CCN(Cc2cccc(OCc3c(F)cccc3Cl)c2)C[C@@H]1O | 2% | -0.21 |
| COc1cc(CNCc2ccc(C(=O)O)cc2)ccc1OCc1ccc(C)cc1 | 3% | -0.39 |
| CCN(CC)Cc1cnc2c(C(=O)N3CCC[C@H](OC)C3)cnn2c1 | -16% | 1.93 |
| CCN(CC)c1ccc(NC(=O)CCC(=O)N2CCCN(c3nc4cccnc4s3)CC2)c(C)c1 | -12% | 1.18 |
| CCCCn1nnnc1CN(CC)c1ccccc1C | -13% | 1.72 |
| c1ccc(Cc2noc(CN3CC[C@H](CN4CCCCC4)C3)n2)cc1 | -13% | 1.39 |
| CC(C)[C@@H](O)CNC(=O)c1ccc2c(Br)cnn2c1 | -3% | 0.56 |
| CC(C)n1cnnc1[C@H](C)Nc1nc(-c2ccccc2)no1 | -9% | 1.07 |
| COC[C@H]1CCCN(c2nc(N)nc(C3CCCC3)n2)C1 | -2% | 0.23 |
| CC1=NN(c2ccccc2)C(=O)C12Cc1cc(Br)ccc1N1CCN(C)CC12 (centres undefined) | -10% | 1.43 |
| Cc1ccc(-c2nc(NC(=O)C3C4C=CC(CC4)C3C(=O)O)sc2C)c(C)c1 (centres undefined) | -5% | 1 |
| c1ccc2c(c1)OC[C@@H](c1noc(Cc3c[nH]c4ccccc34)n1)O2 | -8% | 1.07 |
| CCc1ccc(-c2cc(NC(=O)Nc3cc(-c4ccc(CC)cc4)no3)on2)cc1 | -1% | 0.19 |
| O=C1CS(=O)(=O)C[C@@H](C(=O)N2CC=C(c3ccccc3F)C2)N1 | 0% | -0.06 |
| Cc1noc(C)c1CN(C)CCC(=O)NC1CCCC1 | 0% | 0.04 |
| c1coc(-c2nnc(CN[C@H]3CCc4ncnn4C3)o2)c1 | -5% | 0.62 |
| CCCc1nc(C)c(C(=O)N(C2CCCCC2)C2CC2)s1 | -9% | 1.16 |
| COCCNCCOc1ccc(C)cc1Br | -3% | 0.63 |

| Compound | % Inhibition | Z score |
| --- | --- | --- |
| O=C1c2ccccc2N[C@H](c2cccs2)N1c1ccc2c(c1)OCO2 | -18% | 1.5 |
| Cc1nc(C#N)c(C#N)n1Cc1cc(Cl)cc2c1OCOC2 | 6% | -0.72 |
| Cc1cc(F)c(Br)cc1NCc1ncnn1C | -1% | 0.18 |
| Cc1cc(Cl)c(C(=O)N(C)Cc2nnc(C3CC3)n2C)cc1C | -8% | 0.78 |
| CON(C)S(=O)(=O)c1cc(Br)cc2c1OCCNC2=O | -12% | 1.15 |
| O=S1(=O)CC[C@H](CNc2nc(-c3cccc(Oc4ccccc4)c3)no2)C1 | 25% | -3.26 |
| CN(c1ccccc1)S(=O)(=O)CCCCS(=O)(=O)NCC1CC1 | 2% | -0.24 |
| CCn1ccnc1CNC1c2cccc(F)c2CCC1C (centres undefined) | -12% | 1.36 |
| O=C1NCCCCC1CC(=O)N1CCOCC1C1CCCCC1O (centres undefined) | 5% | -0.68 |
| CC(C)(O)CN1CCN(C(=O)c2cccn3ccnc23)CC1 | -8% | 1.48 |
| Cc1[nH]nc(CCC(=O)N2C[C@H](C(C)C)[C@@H](N(C)C)C2)c1C | -23% | 2.33 |
| C[C@@H]1CN(C(=O)c2n[nH]cc2Cl)CC[C@@]1(O)C1CCOCC1 | -3% | 0.52 |
| CC1(C(=O)NCCS(N)(=O)=O)CCC1 | -15% | 2.07 |
| CC(=O)NCCC(=O)OC1CCCCC1C(C)C (centres undefined) | -8% | 1.51 |
| CCc1nc(C)ccc1OCc1cc(=O)n(C)c(=O)n1C | -6% | 0.56 |
| CC1CC(C)CN(CC(C)NC(=O)C(O)c2ccccc2)C1 (centres undefined) | 26% | -2.95 |
| COc1ccccc1CC(=O)N(C[C@H]1CCOC1)C1CC1 | -5% | 0.59 |
| Cc1cccc(C2C(C(=O)NCC3CCCO3)c3ccccc3C(=O)N2C2CC2)c1 (centres undefined) | 4% | -0.65 |
| CCNC(=O)NCc1nn(C)c2c1CCCC2 | -12% | 2.26 |
| Cc1cccc(-c2noc(-c3cccnc3N3CCN(c4ccc5c(c4)OCO5)CC3)n2)c1 | 21% | -2.49 |
| Cc1ccc(Nc2nc(N3CCOCC3)nc3nccnc23)cc1C | -1% | 0.15 |
| CC(O)C1CCCCN1C(=O)c1nccc2ccccc12 (centres undefined) | -11% | 1.23 |

| Compound | % Inhibition | Z score |
| --- | --- | --- |
| CCc1ccccc1NC(=O)c1ccc(N2C(=O)[C@@H](C)CS2(=O)=O)cc1Cl | -4% | 0.76 |
| CC(C)N(CCN1CCCCCC1)c1ccc2nnc(C(F)F)n2n1 | -7% | 0.65 |
| CC(C)(C)OC(=O)NC1CCCC1Nc1cnn(-c2ccccn2)c1 (centres undefined) | -13% | 1.28 |
| CC1(C)CN(C(=O)NCc2ccccc2F)CCCN1 | -3% | 0.45 |
| CCOC(=O)[C@H]1CCCN(S(=O)(=O)c2cc(-c3cc(C)no3)ccc2C)C1 | -3% | 0.38 |
| C1CCC(c2noc(CNC3CCOC3C3CC3)n2)C1 (centres undefined) | -1% | 0.15 |
| CCc1nnsc1C(=O)Nn1cnc2ccccc2c1=O | 19% | -2.23 |
| COCCNC(=O)Nc1ccn2nccc2c1 | -3% | 0.4 |
| Cc1ccc(S(=O)(=O)CC(=O)Nc2ccncc2)cc1 | 34% | -3.82 |
| COC[C@H]1CCCN1Cc1cccc(C(=O)Nc2cc(C)cc(C)n2)c1 | 9% | -1.02 |
| CC(C)(CNC(=O)NCCS(C)(=O)=O)Cc1cccc(Cl)c1 | -11% | 1.22 |
| CCC1(CC)CNC(=O)[C@H]1NC(=O)c1cc(-c2ccncc2)nn1C | -15% | 3.2 |
| CC(C)C(=O)N1CC(n2ccnc2C(C)C)C1 | -6% | 0.71 |
| c1csc(-c2cn(Cc3csc(N4CCCC4)n3)nn2)n1 | 4% | -0.75 |
| O=C(NC1CCCC1)N1CCC2(CC1)C[C@@H](OCc1ccccc1)CCO2 | 36% | -0.92 |
| CC(C)N(C)C(=O)Cn1c(-c2ccco2)nn(-c2ccc(Cl)cc2)c1=O | -3% | 0.51 |
| Cc1ccc([C@H]2CC(=O)Nc3c2c(C2CC2)nn3C)c(C)c1F | 4% | -0.63 |
| C1=CCC(COc2nccn3nccc23)C1 | -1% | 0.12 |
| CC1CCN(C(=O)c2csc(S(=O)(=O)N3CCc4ccccc4C3)c2)CC1 | -8% | 0.81 |
| Cc1cc2ncn(CC3CCN(C(=O)CN4C(=O)CCC4=O)CC3)c2cc1C | 12% | -1.33 |
| CC(C)[C@H]1COC(=O)N1Cc1ccc(OC(F)F)cc1 | -9% | 1.61 |
| Cc1nc2c(N(C)Cc3noc4c3CCCC4)ncnc2o1 | -9% | 1.44 |

| Compound | % Inhibition | Z score |
| --- | --- | --- |
| CCCc1cc(CNS(=O)(=O)c2cnn(C)c2C)on1 | 4% | -0.54 |
| Cc1cc(NC(=O)c2ccc(F)cc2Cl)sc1C(=O)N(C)c1ccccc1 | 5% | -0.96 |
| Cc1cc(NC(=O)c2nnn(-c3ccc(F)c(Cl)c3)c2C)n2ncnc2n1 | 32% | -3.51 |
| Cc1cc(=O)c(C(=O)N[C@H](c2cc3ccccc3o2)C2CC2)c[nH]1 | 1% | -0.1 |
| CN(CC1CCOCC1)C(=O)CCCc1ccccc1 | -7% | 1.06 |
| O=C(c1ccoc1)N1CCC2(CC1)C[C@@H](N1CCN(c3ccccn3)CC1)CCO2 | -10% | 1.87 |
| Cc1c(CNc2cnccc2CO)cnn1C | -11% | 1.71 |
| CCCCOC(=O)N1CCC(c2nnc(CN3CCOCC3)n2C)CC1 | -14% | 1.73 |
| CCN1C(=O)CCN(S(=O)(=O)c2ccccc2C)CC12CCOCC2 | -1% | 0.14 |
| Cc1nc(NCc2ccc3c(c2)OCCO3)sc1-c1ccn(CCc2cccs2)n1 | -3% | 0.45 |
| Cc1ccc(C(=O)N2CCC[C@H](c3cc4n(n3)CCCNC4=O)C2)c(O)n1 | -11% | 2.06 |
| Cc1ccc2ncccc2c1-c1ccc(=O)n(C)n1 | -10% | 1.47 |
| CCOC(=O)[C@H]1CCCN(C(=O)CN(C)c2nc(C)cc(C)n2)C1 | -11% | 1.41 |
| Cc1cc(C(=O)Nc2cccc(S(=O)(=O)N3CCOCC3)c2)cs1 | -18% | 2.53 |
| CC(C)CN(Cc1cccc(OS(=O)(=O)C(C)C)c1)C(=O)NC(C)(C)C | -3% | 0.41 |
| CC(=Cc1ccc(OC(C)C)cc1)c1cnccn1 | -8% | 0.88 |
| COc1cc(NC(=O)c2cccnc2)c(OC)cc1NC(=O)c1cccnc1 | -14% | 2.2 |
| CN(Cc1ccc(CN2CCCC2)s1)Cc1nccn1C | -11% | 1.04 |
| CC1CCN([C@@H](CNC(=O)N2CCOCC2)c2cccs2)CC1 | -7% | 1.36 |
| CN=C(NCc1cccc(N(C)C)c1)N[C@@H](C)COC | -12% | 1.03 |
| Cc1cccc(CC(CNC(=O)C2CC=CCC2)C(=O)O)c1 (centres undefined) | 1% | -0.1 |
